Laboratory results from the supplement of paper PMC11348887.
“And” between values parts separate entries of the source, which are not always exact repeats. Equal values may be shown once. Where a name gives a salt, the structure may show the parent alone. This is one part of the list. Cut-off read from the data, not from the text of the source: active = -2 or less and inactive = the rest. Many values rest on one well or one pass, so single values are uncertain.

System: hPSC-derived cortical neurons (WA09)
Experiment: nuclei number (viability) z-score; higher = more surviving cells
Conditions: 5 µM; treatment: days 7-14 after plating, readout day 21
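Note: nuclei counted from DAPI counterstain by automated high-content image analysis, four fields per well at ×20 in 384-well plates, with sequential b-score then z-score normalization.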

Row | SMILES | nuclei number (z-score)
1 | O=C(O)CCC(=O)c1ccc(-c2ccccc2)cc1 [Fenbufen] | active: -2.78
2 | O=C(Nc1ccccc1)N1CCN(c2nc(-c3ccccc3)ns2)CC1 | inactive: 0.553
3 | Clc1cccc(CN=C2Nc3ccccc3NC23CCNCC3)c1 [Liproxstatin-1] | inactive: 0.608
4 | CC(C)C[C@H](NC(=O)[C@@H](Cc1cccc2ccccc12)NC(=O)[C@H](Cc1ccc(O)cc1)NC(=O)[C@H](CO)NC(=O)[C@H](Cc1c[nH]c2ccccc12)NC(=O)[C@H](Cc1cnc[nH]1)NC(=O)[C@@H]1CCC(=O)N1)C(=O)N[C@@H](CCCNC(=N)N)C(=O)N1CCC[C@H]1C(=O)NCC(N)=O [Nafarelin Acetate] | inactive: 1.29
5 | CC(CNC(=O)c1cccnc1)NC(=O)c1cccnc1 (stereo not drawn) [Nicaraven] | inactive: 3.4
6 | O=C(c1ccc(Cl)cc1)N(Cc1ccccc1)C1CCCCC1 | inactive: 0.677
7 | CN(c1ncccc1CNc1nc(Nc2ccc3c(c2)CC(=O)N3)ncc1C(F)(F)F)S(C)(=O)=O | inactive: 0.0601 and inactive: -0.218 and inactive: -0.507
8 | CCc1ccc(OCc2ccccc2C(=O)Nc2ccc3nc(C)cc(N)c3c2)cc1 | active: -5.44
9 | CN(C)CCc1c[nH]c2ccc(CS(=O)(=O)N3CCCC3)cc12 [Almotriptan Malate] | inactive: -0.483
10 | Cn1nc(C(C)(C)C)cc1C(=O)N[C@@H](Cc1cccc(Cl)c1)C(=O)NCC#N [Cathepsin Inhibitor 1] | active: -2.27
11 | NNC(=O)c1ccncc1.Nc1ccc(C(=O)O)c(O)c1 [Pasiniazid] | inactive: 0.33
12 | CN(C[C@@H]1COCCO1)S(=O)(=O)Nc1ccc2ccc3ncc(-c4cnn(C)c4)cc3c(=O)c2c1 | inactive: 1.49
13 | CCCc1nn(C)c2c(=O)[nH]c(-c3cc(S(=O)(=O)N4CCN(C)CC4)ccc3OCC)nc12 [Sildenafil Mesylate] | inactive: 0.00382
14 | CCCc1nn(C)c2c(=O)[nH]c(-c3cc(S(=O)(=O)N4CCN(C)CC4)ccc3OCC)nc12 [Sildenafil] | inactive: 1.5
15 | CCCc1nn(C)c2c(=O)[nH]c(-c3cc(S(=O)(=O)N4CCN(C)CC4)ccc3OCC)nc12 [Sildenafil Citrate] | inactive: 0.107
16 | O=[N+]([O-])c1ccc(O)c2ncccc12 [Nitroxoline] | inactive: -0.696
17 | N#CC[C@H](C1CCCC1)n1cc(-c2ncnc3[nH]ccc23)cn1 | inactive: -0.353
18 | CC(=O)Oc1ccc(C(c2ccc(OC(C)=O)cc2)c2ccccn2)cc1 [Bisacodyl] | inactive: -0.682
